# PubChem BioAssay AID651820 (National Center for Advancing Translational Sciences (NCATS), 2012)
# Out of some 340,000 compounds screened, about 12,000 (3.5%) were called active. The shares of active, inactive and inconclusive entries below differ from those in the screen. The call rests on the fitted dose curve; in most records, active means well fitted inhibition curve with a large enough effect; inconclusive means small, poorly fitted or top-dose-only effect, or another doubt; inactive means no such curve, though single readings can be large or run the other way. No potency is given beside an inconclusive call; the fits are too rough.
# Assay: qHTS Assay for Inhibitors of Hepatitis C Virus (HCV)
# Details: Huh7.5.1 HCVcc-Cre (HCVcc is cell-culture hepatitis C virus) infection, luciferase reporter, 44 h; activity change, negative = inhibition: at 41.8 µM (top of the series) unless noted
# Procedure, shortened: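 Luciferase read-out (15 sec integration) after a 15 min room-temperature substrate step quantifies HCVcc-Cre infection. Cells, 1,000 per well, had compound added 4 h post-plating, then virus at ~0.5 moi, and were cultured 44 h.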
# On the % scale 0 is the no-effect control and ±100 the full control effect; potency means the concentration at half of the fitted maximal effect; tags describe the fitted curve by direction and shape.
SMILES,Potency,"activity change, negative = inhibition"
Cc1cccc(NCc2ccc(O)c3ncccc23)c1C,"inconclusive [inhibitor, single point]",
Cc1c(O)ccc2c(CN(C)Cc3ccccc3)cc(=O)oc12,,inactive: -21%
Cn1c(=O)n(C)c2cc(NS(=O)(=O)c3ccccc3[N+](=O)[O-])ccc21,"inconclusive [inhibitor, full curve, poor fit]",
COc1cccc(/C=N/NC(=S)NC2CC3CCC2C3)c1OC (stereo unspecified),,inactive: -19.9%
O=C(NCC1CCN(Cc2cccc(Cl)c2)CC1)C1CCCN(c2ncnc3c2nc2n3CCCCC2)C1 (stereo unspecified),"inconclusive [inhibitor, single point]",
CCOc1cc(CNCCCN2CCOCC2)ccc1OCC(=O)Nc1cccc2ccccc12,active: 14.1 µM,
Cc1ccc(C(=O)O/N=C/c2c(N3CCOCC3)n(C)c3ccccc23)cc1,active: 6.31 µM,
CC(C)N(C(=O)[C@H]1C[C@H](CC(=O)NCCC2=CCCCC2)C(=O)N2CCc3c([nH]c4cc(CCC(=O)N(C)C)ccc34)[C@]12C)C(C)C,"inconclusive [inhibitor, single point]",
Cn1c(Cc2cccc3ccccc23)nnc1SCC(=O)N1CCN(c2cccc(Cl)c2)CC1,active: 3.98 µM,
Cc1ccc(NC(=O)NCCN2CCCCC2)cc1Cl,,inactive: -27.8%
CCc1noc(C)c1C(=O)N1CCC(CCC(=O)Nc2cccc(OC)c2)CC1,"inconclusive [inhibitor, single point]",
COc1ccc(-c2csc(NC(=O)c3ccc(OCC(=O)N4CCOCC4)c(OC)c3)n2)cc1,"inconclusive [inhibitor, single point]",
CN(C)CCNc1nc2sc3c(c2c(=O)n1CCc1ccccc1)CCCCC3,"inconclusive [inhibitor, single point]",
O=C(Nc1cccnc1)c1cccs1,"inconclusive [inhibitor, full curve, poor fit]",
O=C(COc1ccccc1Cl)N1CCN(c2ccc([N+](=O)[O-])c(N3CCOCC3)c2)CC1,"inconclusive [inhibitor, full curve]",
N#Cc1cc(C(=O)c2cc(F)ccc2O)cn(-c2nccs2)c1=O,"inconclusive [inhibitor, single point]",
c1ccc2oc(-c3csc(NCC4CCCO4)n3)cc2c1 (stereo unspecified),active: 25.1 µM,
COc1cc(Cl)c(C)cc1NC(=O)CSc1nc2ccccc2o1,"inconclusive [inhibitor, single point]",
O=c1c2ccccc2c(/C=N/c2ncn[nH]2)c(O)n1Cc1ccccc1,"inconclusive [inhibitor, single point]",inconclusive: -34.9% [inhibitor]
COc1ccc(OC(C)C(=O)N2CCN(c3ccccn3)CC2)cc1 (stereo unspecified),"inconclusive [inhibitor, single point]",
CCN1C(=O)CC(c2ccccc2)N(C2CCCC2)c2nc(Nc3ccc(C(=O)NC4CCN(C)CC4)cc3OC)ncc21 (stereo unspecified),active: 8.91 µM,
Cc1nn(-c2ccccc2)c(C)c1/C=N\NS(=O)(=O)c1ccc(Cl)cc1,,inactive: 3.14%
CCn1cc(C(=O)NCc2ccco2)c(=O)c2cc(S(=O)(=O)N3CCC(C)CC3)ccc21,"inconclusive [inhibitor, single point]",
O=C(CSc1nc2ccccc2o1)N/N=C/c1ccc(O)c(O)c1,"inconclusive [inhibitor, single point]",

SMILES,Potency,"activity change, negative = inhibition"
CCC(C(=O)NCc1cccc(C)c1)n1nc(C)c2c(C)n(-c3ccccc3)nc2c1=O (stereo unspecified),active: 12.6 µM,
C=CCN(c1ccc(C(=O)NC(C)C)cc1)S(C)(=O)=O,,inactive: 3.07%
CCCC(=O)Nc1ccc(NC(=S)NC(=O)c2cccs2)cc1,"inconclusive [inhibitor, single point]",
COc1ccc(/C=N/OCC(=O)NC(c2ccccc2)c2ccccc2)c(OC)c1,"inconclusive [inhibitor, single point]",
O=C1NC(c2ccccc2)(C(F)(F)F)C(=O)N1Cc1cccnc1 (stereo unspecified),,inactive: 22%
COC(=O)C1=C(C(=O)OC)[C@@H]2N(Cc3ccccc3)c3ccccc3[C@@]23C[C@@H](C(=O)OC)N(C(=O)c2ccc(Br)cc2)C3=N1,,inactive: -1.56%
CCOc1ccc(NC(=O)CN(C)C(=O)c2ccc(NC3CC3)c([N+](=O)[O-])c2)cc1OCC,active: 11.2 µM,
CC(=O)c1cccc(NC(=O)CCc2nnc3ccc(N4CCOCC4)nn23)c1,,inactive: 4.45%
CN(Cc1cnn(C)c1)C(=O)c1cc(COc2c(F)cccc2F)on1,,inactive: 9.32%
COc1ccc(-c2cc(C(F)(F)F)nc(NCc3cccs3)n2)cc1,"inconclusive [inhibitor, partial curve]",
COc1cc(C(=O)OCC(=O)N2CCCCC2C)cc(NC(=O)c2cccs2)c1OC (stereo unspecified),"inconclusive [inhibitor, single point]",
CCN(CC)C(=O)COC(=O)c1cc(-c2ccc(OC)cc2)nc2ccccc12,"inconclusive [inhibitor, single point]",
CCC(=O)Nc1cccc(NC(=S)NC(=O)c2ccc(C)cc2)c1,"inconclusive [inhibitor, partial curve]",
CCN1CCn2c3c(c4cc(Cl)ccc42)CCCC31 (stereo unspecified),"inconclusive [inhibitor, partial curve, poor fit]",
C=CCn1c(C)cc(C(=O)CSc2nc3ccccc3c(=O)[nH]2)c1C,,inactive: 7.43%
CCC(C)(C)C1CCC2(CC1)NC(=O)N(CC(=O)N(C)Cc1ccc(OC(F)F)cc1)C2=O (stereo unspecified),"inconclusive [inhibitor, partial curve]",
Cc1ccc(OCCNc2cc(N3CCN(CCO)CC3)ccc2[N+](=O)[O-])cc1C,active: 10 µM,
OCC1OC(n2ccc3c(NO)ncnc32)C(O)C1O (stereo unspecified),"inconclusive [inhibitor, full curve, poor fit]",
Cc1cccc(C(=O)N2CCN(c3ncnc4c3cnn4-c3ccccc3)CC2)c1,"inconclusive [inhibitor, single point]",
Cc1ccccc1NC(=O)c1onc2c1CCCC2,,inactive: -9.33%
O=C(C1CCC(CNS(=O)(=O)c2cccs2)CC1)N1CCN(c2ccc(Cl)cc2)CC1 (stereo unspecified),active: 3.55 µM,
CN(C)c1ccc(CNc2ncnc3sccc23)cc1,active: 1.78 µM,
CC(C)NC(=O)c1onc(CSc2ccc(F)c(F)c2)c1C(=O)NC(C)C,"inconclusive [inhibitor, partial curve]",
Cc1ccccc1CN1CCN(C(=O)CC(C)C)CC1,,inactive: -0.963%

SMILES,Potency,"activity change, negative = inhibition"
COc1ccc(C(=O)CSc2nnc(-c3ccco3)c(-c3ccco3)n2)cc1,,inactive: -9.92%
Cc1ccsc1/C=C1\SC(N2CC(C)OC(C)C2)=NC1=O (stereo unspecified),"inconclusive [inhibitor, single point]",
Cc1c(C(O)CN2CCC(C(N)=O)CC2)c2ccccc2n1C (stereo unspecified),"inconclusive [inhibitor, single point]",
COCCN(C(=O)C1=COCCO1)c1c(N)n(CC(C)C)c(=O)[nH]c1=O,,inactive: 2.62%
O=C(CN1CCCCCC1)Nc1ccc(Br)cn1,,inactive: -13.1%
CCCNC(=O)c1ccc(N2CCC3(CC2)CC(c2cccc(Br)c2)=NO3)c(NC(=O)c2cccc(OC)c2)c1,"inconclusive [inhibitor, partial curve, poor fit]",
Cc1ccc(C2(c3ccccc3)NC(=O)N(CC(=O)NCc3ccco3)C2=O)cc1C (stereo unspecified),"inconclusive [inhibitor, partial curve]",
COc1ccc(-c2cc(C(=O)N3CCN(c4ccccc4O)CC3)c3ccccc3n2)cc1OC,"inconclusive [inhibitor, single point]",
O=C1NCCn2nc3ccccc3c21,,inactive: -0.139%
CCOc1ccc(NC(=S)NC(=O)c2c(Cl)c(C)nn2C)c([N+](=O)[O-])c1,,inactive: 1.92%
C/C(=N\O)c1ccc2c3c([nH]c2c1)CCCC3,"inconclusive [inhibitor, single point]",
O=S(=O)(c1ccccc1)N1CCC(O)(CSc2ccccc2)CC1,"inconclusive [inhibitor, single point]",
C=CCNC(=O)CSc1nc2sc3c(c2c(=O)n1CCC)CCC3,"inconclusive [inhibitor, single point]",
O=C(Cn1c(=O)oc2ccccc21)NCCc1ccccc1Cl,"inconclusive [inhibitor, single point]",
Cc1ccccc1/C=C1\Sc2ccc(C(=O)N3CCN(c4ccccn4)CC3)cc2N(C)C1=O,"inconclusive [inhibitor, single point]",
O=C(COc1ccc([N+](=O)[O-])cc1)NCc1ccncc1,,inactive: -5.46%
Cc1onc(-c2ccccc2)c1-c1nnc(CN2CCN(S(=O)(=O)c3ccccc3F)CC2)o1,"inconclusive [inhibitor, single point]",
COc1ccccc1CNC(=O)C(=O)NCCC1CCCCN1S(=O)(=O)c1ccc(C)cc1 (stereo unspecified),"inconclusive [inhibitor, partial curve, poor fit]",
O=C(COC(=O)CCS(=O)(=O)c1ccccc1)Nc1ccccc1,,inactive: 18.8%
CCOP(=O)(OCC)c1nc(-c2cccc3ccccc23)oc1N1CCOCC1,"inconclusive [inhibitor, single point]",
CCOc1ccc(/C=N/NC(=O)C2CC2)c(OCC)c1,active: 4.47 µM,
Cc1cc(NC(=O)C(C)SCC(=O)OC(C)C(=O)Nc2ccc(F)cc2Cl)no1 (stereo unspecified),,inactive: -17.5%
